We go through 16 molecules from PubChem BioAssay AID485367 (National Center for Advancing Translational Sciences (NCATS), 2010).

The structures appear in SMILES notation. Hit rate of the full screen: of about 330,000 compounds, about 560 (0.17%) were called active. Another 1% or so got no clear call; they are omitted. Calls come from the whole dose curve; as a rule, active = well fitted inhibition curve with a large enough effect; inconclusive = small, poorly fitted or top-dose-only effect, or effect the other way; inactive = flat fitted curve, though single readings scatter. The entries are a selection whose mix differs from that of the whole data set.
Potency is the fitted concentration of half-maximal effect.

UniProt O15648, sequence (O15648 whole entry, looked up): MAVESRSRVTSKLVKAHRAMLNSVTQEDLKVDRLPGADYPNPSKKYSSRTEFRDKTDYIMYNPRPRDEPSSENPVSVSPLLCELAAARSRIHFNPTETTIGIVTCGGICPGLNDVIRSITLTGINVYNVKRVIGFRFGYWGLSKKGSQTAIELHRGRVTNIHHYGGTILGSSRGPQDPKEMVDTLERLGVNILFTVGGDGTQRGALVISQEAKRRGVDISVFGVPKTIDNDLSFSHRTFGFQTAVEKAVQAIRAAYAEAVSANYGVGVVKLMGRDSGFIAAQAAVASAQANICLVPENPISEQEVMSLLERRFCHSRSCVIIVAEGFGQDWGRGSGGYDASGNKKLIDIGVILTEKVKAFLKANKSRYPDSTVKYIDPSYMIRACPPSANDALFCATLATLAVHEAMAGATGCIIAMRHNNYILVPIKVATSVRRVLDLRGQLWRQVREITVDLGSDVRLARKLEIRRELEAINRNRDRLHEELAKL

The target of this experiment is ATP-dependent 6-phosphofructokinase (Trypanosoma brucei brucei) (UniProt O15648). The experiment is described as follows: qHTS Assay to Find Inhibitors of T. brucei phosphofructokinase. Note: nearly all actives have a fitted effect of over 60% in size. To be noted: T. brucei PFK, ADP-Glo luminescence; series mostly up to 57.5 µM; activity, negative = inhibition: at the top concentration. From the text:
NIH Molecular Libraries Probe Production Network [MLPCN] NIH Chemical Genomics Center [NCGC] Grant: 1 R03 MH092153-01 PI Name: Malcolm Walkinshaw, University of Edinburgh NCGC Assay Overview: Various species of the protozoan family Trypanosomatidae are responsible for a range of serious human diseases in tropical and subtropical areas of the world. […] Many of the disorders caused by trypanosomatids are fatal if left untreated, but most currently used drugs are inefficient and toxic. […] Oxidative metabolism involving the mitochondrial tricarboxylic acid cycle and oxidative phosphorylation are repressed in these parasites, and recent RNA interference (RNAi) experiments have shown that even partial depletion of certain individual glycolytic enzymes can lead to the death of cultured parasites. One such glycolytic enzyme, phosphofructokinase (PFK), catalyzes the formation of fructose-1,6-bisphosphate (F1,6BP) and ADP from fructose-6-phosphate (F6P) and ATP, and in many metabolic circumstances makes an important contribution to the control of flux through the glycolytic pathway. As a specific glycolytic target, PFK is particularly attractive as it catalyzes the first irreversible step in glycolysis, and structural and kinetic studies have shown very substantial and essential differences from corresponding host enzymes, allowing for the discovery of parasite-selective inhibitors. The goal of this screen is to find small-molecule inhibitors of T. brucei PFK using a biochemical assay that measures PFK activity as a function of ADP production. A luminescence-based assay for T. brucei PFK activity has been developed which uses luciferase to detect production of ADP. Traditional luciferase-based nucleotide detection reagents rely on ATP production as a direct substrate for the luciferase reaction; however, PFK catalyzes the transfer of a phosphate from ATP to F6P, resulting in the net depletion of ATP. To directly measure the ADP product of the PFK reaction, we used the ADP-Glo detection kit (Promega), which utilizes two separate reactions to 1) deplete all remaining uncatalyzed ATP and 2) convert all remaining ADP to ATP, which is then detected through a traditional luciferase-coupled reaction. Compounds were screened as a concentration-titration series that ranged from 57 uM to 0.7 nM.
NCGC Assay Protocol Summary: NCGC Assay Protocol Summary: Substrate buffer was dispensed into white, solid 1536-well plates at 3uL/well in 0.1M triethanolamine (TEA) buffer, pH 8.0, containing final concentrations of 5 mM MgCl2, 0.01% Tween20, 0.5 mM fructose-6-phosphate (F6P) and 0.1mM ATP. Then, 23 nL of compounds or DMSO were delivered to each well using a pin tool. One uL T. brucei PFK (0.1M TEA, 0.01% Tween20, 0.1% bovine serum albumin (BSA) and 1.25nM PFK, final concentrations) was then dispensed, and plates were incubated at room temperature for 45 min. The luminescent detection reagent, ADP-Glo (Promega), was then added in two steps: the first reagent, ADP-Glo (which converts remaining uncatalyzed ATP), was added at 2.5uL/well and incubated for ten minutes at room temperature, and the second component, Kinase Detection reagent (which converts ADP to ATP as a substrate for luciferase-based luminescence), was added immediately after at 5uL/well, followed by one final ten minute room temperature incubation. The plates were measured on a ViewLux plate reader for luminescent signal using a clear filter with a one second exposure. The %Activity was determined from the corrected luminescence values. As no specific T. brucei PFK inhibitors have been identified in the literature, 1x (1.25nM) and 0x PFK enzyme controls (untreated) were included to normalize %Activity of identified inhibitors; 0x enzyme values corresponded to 100%Activity (full inhibition), while 1x PFK enzyme values were used to normalize 0%Activity (no inhibition). Concentration-response curves were fitted to the signals arising from the resulting luminescence. […]
(Quantitative high-throughput screening tests each substance at several concentrations.)
As for `CN1C(=O)NC(=O)/C(=C\c2ccc([N+](=O)[O-])o2)C1=O`, the “activity, negative = inhibition” value is inactive: 18.4%.

With `FCCN(CCF)c1cccc(Cl)c1`, the Potency is active: 19 µM.

Consider `Cc1cc(/C=C2\C(=O)NC(=O)N(Cc3ccco3)C2=O)c(C)n1-c1ccc(C(=O)O)cc1`, for which the “activity, negative = inhibition” value is inactive: -0.738%.

Consider `CN(C)[C@@H]1C(=O)C(C(N)=O)=C(O)[C@@]2(O)C(=O)C3=C(O)c4c(O)cccc4[C@@](C)(O)C3[C@H](O)C12` (stereo partly specified), for which the “activity, negative = inhibition” value is inactive: -13.8%.

As for `COc1cccc([C@@]2(O)CCCC[C@@H]2CN(C)C)c1`, the “activity, negative = inhibition” value is inactive: -5.84%.

As to `O=C1NC(=O)N(Cc2ccccc2)C(=O)/C1=C\C=C\c1ccco1`, the “activity, negative = inhibition” value was inactive: -22.5%.

`[Cl][Pt+2][Cl].[NH-]C1CCCCC1[NH-]` (stereo unspecified): the “activity, negative = inhibition” value was inactive: -18.8%.

For `NC(N)=Nc1ccc2[nH]c3c(c2c1)C[C@@]1(O)[C@H]2Cc4ccc(O)c5c4[C@@]1(CCN2CC1CC1)C3O5` (stereo partly specified), the “activity, negative = inhibition” value is inactive: 1.96%.

On to `CN(C)[C@@H]1C(=O)C(C(N)=O)=C(O)[C@@]2(O)C(=O)C3=C(O)c4c(O)cccc4[C@@](C)(O)[C@H]3[C@H](O)[C@@H]12`, for which the “activity, negative = inhibition” value was inactive: -22.6%.

`Cc1cc2c(C(C)C)c(O)c(O)c(C=O)c2c(O)c1-c1c(C)cc2c(C(C)C)c(O)c(O)c(C=O)c2c1O`: the “activity, negative = inhibition” value is inactive: 0.543%.

Regarding `O=C1NC(=O)N(c2ccccc2)C(=O)/C1=C/c1ccc([N+](=O)[O-])s1`, the “activity, negative = inhibition” value was inactive: -14.2%.

Regarding `COc1cc(CNC(=O)CCCC/C=C\C(C)C)ccc1O`, the “activity, negative = inhibition” value is inactive: 0.838%.

Take `CCC(COC(=O)c1cc(OC)c(OC)c(OC)c1)(c1ccccc1)N(C)C` (stereo unspecified): the “activity, negative = inhibition” value is inactive: -3.64%.

As to `Cc1ccc(N2C(=O)NC(=O)/C(=C\c3ccoc3)C2=O)cc1`, the “activity, negative = inhibition” value is inactive: 1.37%.

On to `CC(C)n1c(/C=C/[C@@H](O)C[C@@H](O)CC(=O)O)c(-c2ccc(F)cc2)c2ccccc21`, for which the “activity, negative = inhibition” value is inactive: -1.93%.

In the case of `O=C1C[C@@H](c2ccc(O)cc2)Oc2cc(O)cc(O)c21`, the “activity, negative = inhibition” value was inactive: 1.26%.
